Here are results for 22 molecules from paper PMC12136788.

T1: UNK ZnF1-6 (called full-length) (human, UniProt Q9C0B0 30-357)
T1 sequence: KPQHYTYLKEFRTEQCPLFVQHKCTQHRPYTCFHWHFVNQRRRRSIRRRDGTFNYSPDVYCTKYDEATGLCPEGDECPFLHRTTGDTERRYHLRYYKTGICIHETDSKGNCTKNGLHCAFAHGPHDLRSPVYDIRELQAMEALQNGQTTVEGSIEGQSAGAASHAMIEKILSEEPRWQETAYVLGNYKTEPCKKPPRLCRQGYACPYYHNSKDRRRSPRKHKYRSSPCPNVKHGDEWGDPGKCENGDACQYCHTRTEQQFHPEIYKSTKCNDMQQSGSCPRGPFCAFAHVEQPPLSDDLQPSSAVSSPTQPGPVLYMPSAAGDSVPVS

B1: ENSG00000198589:be:win_601|CDS|ENSG00000198589|bound_else_gene|NA|bound_elsewhere_windowed (ssRNA)
RNA: GGGAGUUCUACAGUCCGACGAUCUAUGGUCCUGAUGCCUUUUUUAACUUUCCAGGAAAGAGUGCUGCAGCUAUUGCAUUACCUCCUAUAGCCAAAUGGCCAUACCAGAAUGGUUUUACAUUUCAUACAUGGCUUAGAAUGGAUCAACAGAGGAUUGAGCAUCA
B2: chr12:24812577:24812678:-|3pUTR|ENSG00000060982|msi1|total|mutant (ssRNA)
RNA: GGGAGUUCUACAGUCCGACGAUCAUCCAAAGGAGCUUUUUCCUUAUUCUGUCAAGCAUUGAGAUCUUCUUCAGCUUUCAAUGCCGUUGCUAAAUACAAAUAAUGCUACCCGGCCGUGACUAAAUACCGCAAACACUUCAUCAGCAACAGAGGAUUGAGCAUCA
B3: chr3:154315110:154315224:-|CDS|ENSG00000174953|unk|FALSE|unique (ssRNA)
RNA: GGGAGUUCUACAGUCCGACGAUCUCAGAGAACAAACUUGACAUCCAGGAAAAGAAGUUGAUAAAUCAAGAAAAAAAAAUGUUUAGAAUCAGGAACAGAUCAUAUAUUGACCGAGAUUCUGAGUAUCUCUUGCAAGAAAAUGAACAACAGAGGAUUGAGCAUCA
B4: chr5:139390591:139392033:-|three_prime_utr|ENSG00000228672|control|control|control (ssRNA)
RNA: GGGAGUUCUACAGUCCGACGAUCAGGGCGUGGUGUGGUGUGGUGUGUGGGUGUGUGUAUAUGUGUAUAUGCGGGCAAGCAAAUAGGGAAAGUGAGGCAUCCCUGGGCUUGUCCCCAGGAGCCGAUCAGAGGAGGUGCUGUGGCCAACAGAGGAUUGAGCAUCA
B5: chr22:39522180:39522281:+|CDS|ENSG00000128272|msi1|FALSE|bound_elsewhere (ssRNA)
RNA: GGGAGUUCUACAGUCCGACGAUCGCUUACGUUGCCAUGAUCCCUCAGUGCAUAAAGGAGGAAGACACCCCUUCAGAUAAUGAUAGUGGCAUCUGUAUGAGCCCAGAGUCCUAUCUGGGGUCUCCUCAGCACAGCCCCUCUACCCAACAGAGGAUUGAGCAUCA
B6: chr4:185586528:185586629:-|3pUTR|ENSG00000154556|msi1|total|mutant (ssRNA)
RNA: GGGAGUUCUACAGUCCGACGAUCAUCCAUAUGAUAUGUUGUACAUUUUAUGGAAAUGUAACCGAAUCUCACACAUUAUUUUACCGAAACCGAGUACAGAAGCAUCACAAGUAUUAAAGUUGGUUUCCGCAAGGAUCCGGAUUACAACAGAGGAUUGAGCAUCA
B7: chr17:57839567:57839672:-|3pUTR|ENSG00000181610|unk|total|mutant (ssRNA)
RNA: GGGAGUUCUACAGUCCGACGAUCGGGUUGUCACAAAGCUCAGUAUCAUGGUUUGACAGAAGCAGUUAUGUGAACUUUUAUGUCCGGACAUUACUAAAUAAAGAAUUCCCCCGCUGCUUAUAAAGUAAAUUUACUUUGAAUUGUCAACAGAGGAUUGAGCAUCA
B8: chr22:29555535:29555644:-|3pUTR|ENSG00000184117|unk|FALSE|unique (ssRNA)
RNA: GGGAGUUCUACAGUCCGACGAUCUUCCUCAUCUCAAGGCCACCAGUCCCCAGUUAUCACCCUUGGAAAUCCUCUGUUUAGCUUAGUUGCACAAAAGGUAGUAUGUCCAGUGGCUAGAGGUGGGGUGGGAAGAGAGGAGGCCAGCAACAGAGGAUUGAGCAUCA
B9: chr10:33178043:33178144:-|3pUTR|ENSG00000099250|msi1|FALSE|unique (ssRNA)
RNA: GGGAGUUCUACAGUCCGACGAUCAAAUUGGAUUGAGAAUGCCUUUUGUUUCCAGGAAAAUAUUGAUCACCAUGAAAGAAGAAUAGUUUUUUGUCCCCAGAGACAUUCAUUUAGUUGAUAUAAUCCUACCAGAAGGAAAGCACUCAACAGAGGAUUGAGCAUCA
B10: ENSG00000070961:be:win_1451|CDS|ENSG00000070961|bound_else_gene|NA|bound_elsewhere_windowed (ssRNA)
RNA: GGGAGUUCUACAGUCCGACGAUCGAAUGACAGUCGUUCAAGCUUACAUAAAUGAAAAACAUUAUAAAAAGGUUCCUGAACCAGAAGCUAUUCCACCAAAUAUUUUGUCCUAUCUUGUAACAGGAAUUUCUGUGAAUUGUGCUUCAACAGAGGAUUGAGCAUCA
B11: chr2:75053604:75053755:-|CDS|ENSG00000115353|control|control|control (ssRNA)
RNA: GGGAGUUCUACAGUCCGACGAUCCUGUGUGACUGUGCUGAUCUACUUCCUCCCCCUGCUGGUGAUUGGCUAUGCAUACACCGUAGUGGGAAUCACACUAUGGGCCAGUGAGAUCCCCGGGGACUCCUCUGACCGCUACCACGACAACAGAGGAUUGAGCAUCA
B12: chrX:141908562:141908663:+|CDS|ENSG00000155495|unk|FALSE|unique (ssRNA)
RNA: GGGAGUUCUACAGUCCGACGAUCUCCUCGUUACGAAUUCCUGUGGGGUCCAAGAGCUCAUUCAGAAGUCAUUAAGAGGAAAGUAGUAGAGUUUUUGGCCAUGCUAAAGAAUACCGUCCCUAUUACCUUUCCAUCCUCUUACAACAACAGAGGAUUGAGCAUCA
B13: chr2:24789727:24790410:-|three_prime_utr|ENSG00000184924|control|control|control (ssRNA)
RNA: GGGAGUUCUACAGUCCGACGAUCUUAAUAAGUUCAAGUGGGGAAGGUGGGAGAGCAGUAUUGUCUGGGGAUCAUUGCUCAAAUAGAAGAUUUGGUUAGACUCUCCUGUGGGGCUCAAGGAAACUCCCUUCCAGUCACUCGGGUCAACAGAGGAUUGAGCAUCA
B14: chr8:52158897:52159109:-|CDS|ENSG00000147488|control|control|control (ssRNA)
RNA: GGGAGUUCUACAGUCCGACGAUCCCAGAGCCCUGGCCGUGCCAGCUCUUAUAGCUACGGUCAAUGUAGUGAAGACACCCACAUAGCAGCAGCUGCUGCCAUCCUGAACCUUUCCACCCGCUGCAGGGAAGCCACAGACAUCCUCAACAGAGGAUUGAGCAUCA
B15: chr7:137014887:137014989:+|CDS|ENSG00000181072|unk|total|mutant (ssRNA)
RNA: GGGAGUUCUACAGUCCGACGAUCGCUACUUGGCUACUGAUCCGAGAACGCAAAAUGAAUAACUCAACAAACUCCUCUAACAACCGCCUGGCUCUUACAAGUCCUUAUAAGACAUUUGAAGUGGUGUUUAUUGUCCUGGUGGCUCAACAGAGGAUUGAGCAUCA
B16: chr1:173734013:173734119:+|CDS|ENSG00000076321|unk|total|mutant (ssRNA)
RNA: GGGAGUUCUACAGUCCGACGAUCCAUUGACGAGAGGGCUAUGGAAUUACUGAUUGACUUUGCGUAUACCUCCCAGAUAACAGCCGAAGAGGGCAAUGUUCAGACUCUUCUGCCAGCUGCUUGCCUCCUCCAGCUGGCAGAAAUCAACAGAGGAUUGAGCAUCA
B17: chr18:55226207:55226308:-|3pUTR|ENSG00000196628|unk|FALSE|unique (ssRNA)
RNA: GGGAGUUCUACAGUCCGACGAUCAUUUUUACAGCCACACAAUUCUUGGCAUGUAUUAAGAAAAAAAAAAAUCCCUGUUCAAGUAGUUUUUCCACCUAUCAGCACUGAGUAAAUGCCAUAAAUCCAUUGAAAUGGUCUAAAUGUCAACAGAGGAUUGAGCAUCA
B18: chr5:36975901:36976008:+|CDS|ENSG00000164190|unk|FALSE|unique (ssRNA)
RNA: GGGAGUUCUACAGUCCGACGAUCAUGAAAUUAGGCAAGGAUGAAAAAGAGCAGAGUGAGAAAGCGGCAAUGUAUGAUAUAAUUAGUUCUCCAUCCAAGGACUCUACUAAACUUACAUUAAGACUUUCUCGUGUAAGGUCUUCACAACAGAGGAUUGAGCAUCA
B19: ENSG00000080224:stop:overlap|stop_codon|ENSG00000080224|stop_codon|NA|stop_codon (ssRNA)
RNA: GGGAGUUCUACAGUCCGACGAUCGUACAGGAUAUGAAGAAAUUGAGGGUUCUUGCCAUGGAGCCUCCAAAGGCCGCUGCUUCUAGUUGGCCAUCUUGGCCCCACCCCGAAACAGUAACCUUUGAAGAAUAAAAGAAAAAGCAACAACAGAGGAUUGAGCAUCA
B20: ENSG00000198589:be:win_3001|CDS|ENSG00000198589|bound_else_gene|NA|bound_elsewhere_windowed (ssRNA)
RNA: GGGAGUUCUACAGUCCGACGAUCCUAGAAUCUGCAUCUAAUAUUGAACUGCAAACUACUAAUACAUCUUAUGAAGAAAUGAAAGCUGAGCAAGAAAAUCAGGAGUUACCAGAUGAAGGCACUUUGGAAGAAACACUGACAAAUCAACAGAGGAUUGAGCAUCA
B21: chr11:2928445:2928542:-|3pUTR|ENSG00000181649|msi1_unk|total|mutant (ssRNA)
RNA: GGGAGUUCUACAGUCCGACGAUCAUUGGACUAUCUAAUAUCUAUGUAUUUAUUUCGCUGGUUCUUUGCCGUCACAUAUUUUACCGUCUUAAUAUCUUGUUUUUGCAUCACUGUGCCCAUUGCAAAUAAAUCACUUGGCCAGUUCAACAGAGGAUUGAGCAUCA
B22: chr6:109506326:109506547:-|CDS|ENSG00000155085|control|control|control (ssRNA)
RNA: GGGAGUUCUACAGUCCGACGAUCAAUAGUGCACAAAUUGUAGCUGUCAAUAAUGUAAAGUAUCGCAAAAAUAUUGGUGAGAUUAGGCAAUAUUAUCAAGAACAGCAUCAGAACUGGUAUGUGAUUGAUGGAUUUCACAGCAAACAACAGAGGAUUGAGCAUCA

The list shows a part of the results.

This assay deals with T1, UNK ZnF1-6 (called full-length). Kind of assay: nsRBNS (natural sequence RNA bind-n-seq); RBNS binding buffer (assumed for nsRBNS): 25 mM Tris pH 7.5, 150 mM KCl, 3 mM MgCl2, 0.01% Triton X-100, 500 ug/ml BSA, 20 U/ml SUPERase-In, 4 C; UNK is unkempt and MSI1 is Musashi-1; names of the RNAs are library labels; protein concentration not given here; high values mean tight binding.
Molecule B1 had a binding signal of 0.375 enrichment R.
The figure for B2 is 0.21 enrichment R.
In the case of B3 it was 0.511 enrichment R; in that of B4, 1.13 enrichment R.
For B5, the binding signal was found to be 0.588 enrichment R.
In the case of B6 it was 0.52 enrichment R; in that of B7, 0.579 enrichment R.
In the case of B8 it was 1.06 enrichment R; in that of B9, 0.932 enrichment R.
The figure for B10 is 0.349 enrichment R; for B11 it is 0.902 enrichment R; for B12 it is 0.393 enrichment R.
For the molecule B13, the binding signal stood at 0.928 enrichment R.
In the case of B14 it was 0.674 enrichment R; in that of B15, 0.461 enrichment R; in that of B16, 0.626 enrichment R.
The figure for B17 is 0.438 enrichment R.
The figure for B18 is 0.413 enrichment R; for B19 it is 0.606 enrichment R; for B20 it is 0.413 enrichment R.
In turn, B21 showed a binding signal of 1.11 enrichment R.
In the case of B22 it was 0.577 enrichment R.
